# Assay results: PubChem BioAssay AID504832 (National Center for Advancing Translational Sciences (NCATS), 2011)
# Among all 310,000 compounds or so, about 18,000 (5.8%) were called active. Inconclusive means that the source gave no clear call. Such entries were picked first, then a sample of the others. The call rests on the fitted dose curve; in most records, active means well fitted inhibition curve with a large enough effect; inconclusive means small, poorly fitted or top-dose-only effect, or another doubt; inactive means no such curve, though single readings can be large or run the other way. Potencies of inconclusive entries are left out as doubtful fits.
# Experiment: Primary qHTS for delayed death inhibitors of the malarial parasite plastid, 48 hour incubation
# Conditions: P. falciparum luciferase growth in erythrocytes; series mostly up to 28.7 µM
# Outline: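 Luciferase-expressing P. falciparum in infected erythrocytes (2% hematocrit, 0.1% parasitemia final) in RPMI 1640/0.5% Albumax were exposed to compound for 48 hours at 37 C, 5% CO2; growth read as luminescence.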
# Potency means the concentration at half of the fitted maximal effect; tags describe the fitted curve by direction and shape.
row,Compound,Potency
1,COCCn1c(C)cc(C(=O)CSc2nc(C)c(C)c(C)n2)c1C,inactive
2,O=C1NC2(CCCCCC2)C(=O)N1Cc1ccccc1Cl,inactive
3,Cc1cccc(NC(=O)c2cc(NC(=O)C3CC=CCC3C(=O)O)ccc2N2CCOCC2)c1 (stereo unspecified),inactive
4,Cc1cccc(C2c3[nH]c4ccccc4c3CCN2C(=O)c2cn(C)c3ccccc3c2=O)n1 (stereo unspecified),"inconclusive [inhibitor, single point]"
5,O=C(NC12CC3CC(CC(C3)C1)C2)N1CCC(n2nnc3ccccc32)CC1,"inconclusive [inhibitor, full curve]"
6,COc1ccc(NC(=O)CN(C)C(=O)c2cccc(S(=O)(=O)N3CCCc4ccccc43)c2)cc1,active: 13.1 µM
7,N#CCSc1nnc(Cc2ccc3c(c2)OCO3)o1,"inconclusive [inhibitor, single point]"
8,O=[N+]([O-])c1cc(S(=O)(=O)N2CCCCC2)ccc1NCCCN1CCOCC1,"inconclusive [inhibitor, partial curve, poor fit]"
9,CCc1ccccc1NC(=O)COc1ccc2c(c1)OCO2,inactive
10,N/C(=N\OC(=O)Cc1ccc(-c2ccccc2)cc1)c1ccncc1,"inconclusive [inhibitor, single point]"
11,C/C(Cc1ccccc1)=N\NC(=O)CNC(=O)c1ccccc1Br,inactive
12,CC1CCC/C(=C\Nc2ccccc2C(=O)O)C1=O (stereo unspecified),inactive
13,CNC(=O)c1ccsc1NC(=O)c1sc2ccccc2c1Cl,inactive
14,O=C(CN1C(=O)CSc2ccc(C(F)(F)F)cc21)Nc1ccccc1,"inconclusive [inhibitor, single point]"
15,Cc1ccccc1NC(=O)Cn1c(C)nc2ccc(NC(=O)C3CC3)cc2c1=O,"inconclusive [inhibitor, single point]"
16,CCOCCCNS(=O)(=O)c1cc(Br)cc2c1N(C(=O)C1CC1)CC2,"inconclusive [inhibitor, single point]"
17,CCOC(=O)c1c(NC(=O)CN2CCC(C)CC2)sc(C)c1C,"inconclusive [inhibitor, partial curve, poor fit]"
18,CCc1nc(Nc2ccc(O)cc2)c2oc3ccccc3c2n1,"inconclusive [inhibitor, partial curve, poor fit]"
19,Cc1coc2cc3oc(=O)c(CCC(=O)NCc4ccccn4)c(C)c3cc12,"inconclusive [inhibitor, single point]"
20,O=C(COC(=O)CCN1C(=O)C2CC=CCC2C1=O)NCCc1ccc(F)cc1 (stereo unspecified),"inconclusive [inhibitor, partial curve, poor fit]"
21,COC(=O)[C@@]12CCCCN1[C@H](c1ccc(SC3CCCCC3)cc1)[C@@H]1C(=O)N(C)C(=O)[C@@H]12,"inconclusive [inhibitor, single point]"
22,CCn1c(Sc2ccc([N+](=O)[O-])cn2)nnc1-c1ccco1,"inconclusive [inhibitor, partial curve, poor fit]"
23,CCOC(=O)c1c(Nc2nc(C)c(C(=O)NC)s2)sc(C)c1C,"inconclusive [inhibitor, single point]"

row,Compound,Potency
1,Cc1cccc(-c2nc(Nc3ccc(N4CCOCC4)cc3)c3ccccc3n2)c1,active: 9.28 µM
2,Cc1ccc(NC(=O)CSC2=C(C#N)C(c3ccc4c(c3)OCO4)CC(=O)N2)cc1C (stereo unspecified),"inconclusive [inhibitor, single point]"
3,Cc1cccc(C(=O)NNC(=O)c2ccccc2Br)c1,inactive
4,Cc1cc(C)n(Cc2cnc(N3CCOCC3)s2)n1,"inconclusive [inhibitor, single point]"
5,CCOc1ccccc1N1CC(C(=O)N2CCc3ccccc3C2)CC1=O (stereo unspecified),"inconclusive [inhibitor, partial curve, poor fit]"
6,N#CCN(CC#N)C(=O)C1c2ccccc2Oc2ccccc21,inactive
7,O=C(c1cc(COc2ccc(F)cc2F)on1)N1CCN(C2CCCC2)C(=O)C1,active: 8.28 µM
8,CCOc1cccc2cc(C(=O)N3CCN(C/C=C/c4ccccc4)CC3)c(=O)oc12,"inconclusive [inhibitor, partial curve]"
9,Cc1ccc(C(=O)O)cc1NC(=O)CSc1ncnc2sc3c(c12)CCC3,inactive
10,CCN(C(=O)Cn1cnc2c1c(=O)n(C)c(=O)n2C)C1CCS(=O)(=O)C1 (stereo unspecified),inactive
11,C/C(CCc1ccco1)=N/NC(=O)CCC(=O)Nc1cccc(Cl)c1,inactive
12,COc1ccc(N2CCN(C(=O)CSc3nnnn3-c3ccc4c(c3)OCCO4)CC2)cc1,"inconclusive [inhibitor, partial curve, poor fit]"
13,c1ccc(Cn2c(-c3ccccc3)c[n+]3c2SCCC3)cc1,active: 1.04 µM
14,CCOc1ccccc1-n1c(CN2CCN(C(=O)c3ccco3)CC2)nc2ccccc2c1=O,"inconclusive [inhibitor, partial curve, poor fit]"
15,Cc1nc(N2CCC(C)CC2)c2nnn(Cc3ccccc3)c2n1,active: 11.7 µM
16,C/C(=C\c1ccccc1)C(=O)NCCCn1ccnc1,inactive
17,COc1ccc(C(=O)c2c3ccc([N+](=O)[O-])cc3[n+]([O-])n2CCCC(N)=O)cc1,"inconclusive [inhibitor, single point]"
18,O=C(COC(=O)c1ccc(F)c(S(=O)(=O)N2CCOCC2)c1)NC1CCCCC1,"inconclusive [inhibitor, single point]"
19,CC1SCC(NC(=O)c2cccc(Cl)c2)CS1 (stereo unspecified),inactive
20,CN(C)c1cccc(N=C2C=C(N3CCOCC3)CC(C)(C)C2)c1,"inconclusive [inhibitor, partial curve, poor fit]"
21,COC(=O)c1cccc(C(=O)Nc2ccc(C)cc2Br)n1,inactive
22,Cc1cccc2nc(CSC(=N)N)c(Br)n12,"inconclusive [inhibitor, single point]"
23,Cc1cccc2cc3c(nc12)SC(=NCC1CCCO1)N(Cc1ccco1)C3 (stereo unspecified),active: 4.15 µM
